This passage reports % BB Homodimer (incorrect assembly) results from patent publication US20180009908.

The nature of the data set: LCMS, IgG1 BsAb co-expression; HCB homodimer species.

B1: BHA10 HC_WT + BHA10 LC (IgG1) (protein)
chain 1: QVQLVQSGAEVKKPGSSVKVSCKASGYTFTTYYLHWVRYAPGQGLEWMGWIYPGNVHAQYNEKFKGRVTITADKSTSTAYMELSSLRSEDTAVYYCARSWEGFPYWGRGTTVTVSSASTKGPSVFPLAPCSKSTSGGTAALGCLVKDYFPEPVTVSWNSGALTSGVHTFPAVLQSSGLYSLSSVVTVPSSSLGTQTYICNVNHKPSNTKVDKKVEPDSG[human IgG1 Fc not given here]
chain 2: DIQMTQSPSSLSASVGDRVTITCKASQNVGINVAWYQRKPGDAPKSLISSASYRYSGVPSRFSGSGSGTDFTLTISSLQPEDFATYFCQQYDTYPFTFGQGTKVEIKRTVAAPSVFIFPPSKEQLKSGTASVVCLLNNFYPREAKVQWKVDNALQSGNSQESVTEQDSKDSTYSLSSTLTLSKADYEKHKVYACEVTHQGLSSPVTKSFNRGEC
As for B1, the % BB Homodimer (incorrect assembly) came out at 28.9%.

B2: BHA10 HC_7.8_B + BHA10 LC (IgG1) (protein)
chain 1: QVQLVQSGAEVKKPGSSVKVSCKASGYTFTTYYLHWVRYAPGQGLEWMGWIYPGNVHAQYNEKFKGRVTITADKSTSTAYMELSSLRSEDTAVYYCARSWEGFPYWGRGTTVTVSSASTKGPSVFPLAPCSKSTSGGTAALGCLVKDYFPEPVTVSWNSGALTSGVHTFPAVLQSSGLYSLSSVVTVPSSSLGTQTYICNVNHKPSNTKVDKKVEPDSG[human IgG1 Fc with changes not given here]
chain 2: B1 chain 2
B2 showed a % BB Homodimer (incorrect assembly) of 15.1%.
